# The other results are listed elsewhere or left out. Single values are uncertain, as repeats are few or missing.
# Test system: LOXIMVI
# Experiment: cell count relative to DMSO control; melanoma cells; higher = more viable cells
# Conditions: library dose: standard library concentration; 72 h
# 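Note: cells treated in 1,536-well plates, then fixed and DAPI-stained, with nuclei counted from automated high-throughput microscope images.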
row,SMILES,cell count [%]
1,"CN(c1ncccc1CNc1nc(Nc2ccc3c(c2)CC(=O)N3)ncc1C(F)(F)F)S(C)(=O)=O + C[C@@H]1CCN(C(=O)CC#N)C[C@@H]1N(C)c1ncnc2[nH]ccc12 [CP690550] (first compound 0.4 µM, partner dose 5 µM)",86.3
2,"CCCS(=O)(=O)Nc1ccc(F)c(C(=O)c2c[nH]c3ncc(Cl)cc23)c1F + Oc1cc(-c2nc(-c3ccccc3)[nH]c2-c2ccncc2)ccc1Cl [L779450] (first compound 0.4 µM, partner dose 1 µM)",130
3,"C=C(c1ccc(C(=O)O)cc1)c1cc2c(cc1C)C(C)(C)CCC2(C)C [Bexarotene] + Oc1nc(-c2ccc(C(F)(F)F)cc2)nc2c1CSCC2 [XAV939] (first compound 10 µM, partner dose 10 µM)",121
4,"C=C(c1ccc(C(=O)O)cc1)c1cc2c(cc1C)C(C)(C)CCC2(C)C [Bexarotene] + CCCS(=O)(=O)Nc1ccc(F)c(C(=O)c2c[nH]c3ncc(Cl)cc23)c1F [PLX4720] (first compound 10 µM, partner dose 0.4 µM)",103
5,"CN(c1ncccc1CNc1nc(Nc2ccc3c(c2)CC(=O)N3)ncc1C(F)(F)F)S(C)(=O)=O + Cc1cc(N2CCOCC2)cc2[nH]c(-c3c(NC[C@@H](O)c4cccc(Cl)c4)cc[nH]c3=O)nc12 [BMS536924] (first compound 0.4 µM, partner dose 1 µM)",86.5
6,"CS(=O)(=O)c1ccc(C(=O)Nc2ccc(Cl)c(-c3ccccn3)c2)c(Cl)c1 [vismodegib] + O=C(CCCCCCC(=O)Nc1ccccc1)NO [vorinostat] (first compound 5 µM, partner dose 0.4 µM)",80.2
